Data taken from paper PMC4336329 (PLoS ONE, 2015).
About 14,000 (4.5%) of roughly 310,000 compounds showed an effect of 50% or more. Effects have a minus sign here. The list shows a part of the results.

What follows are compounds tested against human ether-à-go-go-related gene (hERG) potassium channel (human, UniProt Q12809) (assay: primary screen, population patch clamp on CHO cells stably expressing hERG).
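Also: peak tail current of the secondary pulse compared with the same well before compound.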

human ether-à-go-go-related gene (hERG) potassium channel, sequence (Q12809 whole entry, looked up): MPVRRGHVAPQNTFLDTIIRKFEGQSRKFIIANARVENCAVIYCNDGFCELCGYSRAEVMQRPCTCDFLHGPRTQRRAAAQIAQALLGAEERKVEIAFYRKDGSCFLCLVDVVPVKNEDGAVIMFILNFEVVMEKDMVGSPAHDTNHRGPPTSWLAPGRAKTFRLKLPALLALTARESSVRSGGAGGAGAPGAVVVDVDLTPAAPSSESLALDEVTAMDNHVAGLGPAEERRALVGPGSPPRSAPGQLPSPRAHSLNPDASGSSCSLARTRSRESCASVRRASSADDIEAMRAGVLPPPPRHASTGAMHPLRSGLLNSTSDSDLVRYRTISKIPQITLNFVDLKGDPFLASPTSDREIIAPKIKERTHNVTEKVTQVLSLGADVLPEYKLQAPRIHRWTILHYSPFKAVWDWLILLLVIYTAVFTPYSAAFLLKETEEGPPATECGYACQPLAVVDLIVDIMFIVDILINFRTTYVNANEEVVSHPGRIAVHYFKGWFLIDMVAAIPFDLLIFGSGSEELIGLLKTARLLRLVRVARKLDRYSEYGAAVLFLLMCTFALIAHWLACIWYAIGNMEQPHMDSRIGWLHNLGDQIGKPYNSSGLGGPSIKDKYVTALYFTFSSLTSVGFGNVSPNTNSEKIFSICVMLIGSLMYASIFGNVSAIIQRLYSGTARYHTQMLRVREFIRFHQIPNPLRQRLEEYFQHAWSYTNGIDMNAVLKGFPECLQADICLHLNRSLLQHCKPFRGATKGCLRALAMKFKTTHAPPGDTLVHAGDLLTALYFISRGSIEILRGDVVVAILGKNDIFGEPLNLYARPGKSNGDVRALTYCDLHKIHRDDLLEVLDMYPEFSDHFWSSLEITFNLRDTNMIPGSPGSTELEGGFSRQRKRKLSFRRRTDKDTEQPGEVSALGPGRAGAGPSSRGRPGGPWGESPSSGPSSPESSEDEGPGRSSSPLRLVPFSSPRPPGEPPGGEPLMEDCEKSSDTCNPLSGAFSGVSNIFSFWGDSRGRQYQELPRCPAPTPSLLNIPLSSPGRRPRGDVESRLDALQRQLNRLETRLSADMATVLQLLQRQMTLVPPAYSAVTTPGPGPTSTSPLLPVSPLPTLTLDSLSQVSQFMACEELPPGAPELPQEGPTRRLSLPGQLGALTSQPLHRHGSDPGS

SMILES | hERG current change (%, negative = inhibition) at 10uM
COc1cccc(N2CCN(c3c(C#N)c(C(F)(F)F)nn3C)CC2)c1 | -12.6%
COc1cccc(/C=N/NC(=O)c2c(-c3ccccc3)noc2C)c1OC | 11%
Cc1ccc(CNC(=O)Cn2ccc3cc(S(=O)(=O)N4CCCCCC4)ccc32)cc1 | 15.5%
COc1ccc(S(=O)(=O)NNC(=O)c2csc(-n3nc(C)cc3C(F)(F)F)n2)cc1 | 19.9%
Cc1ccc(Nc2nnc(C)c3ccccc23)c(C)c1 | -16.4%
CCN(CC)c1ccc(S(=O)(=O)Nc2cc(Cl)ccc2Cl)cc1NC(=S)NC(=O)C1CCCC1 | 10.3%
C=CCn1c(SCC(C)=O)nc2scc(-c3ccc(C)o3)c2c1=O | 16.6%
O=C(Cn1cnc2sc(-c3ccccc3)cc2c1=O)NCc1ccco1 | -3.75%
CC(CCc1ccccc1)NC(=O)c1ccccc1 (stereo not drawn) | 5.58%
CC(=O)Nc1c2c(nn1-c1ccc(C)cc1C)CS(=O)C2 (stereo not drawn) | 8.17%
CCn1cc(S(=O)(=O)CC(=O)Nc2ccc3c(c2)OCO3)c2ccccc21 | 11.2%
O=C(CN1CCN(S(=O)(=O)c2ccc(C(F)(F)F)cc2)CC1)N1CCNC1=O | -0.563%
CCOC(=O)N1CCN(C(=O)COc2ccc3c(c2)C(=O)CC2(CCN(C(C)=O)CC2)O3)CC1 | -2.13%
Cn1ncc(Cl)c1C(=O)N1CCc2ccccc21 | -13.9%
CCCOc1ccc2oc(=O)c3c(c2c1)CCCN3C(=O)CN1CCCC(C(=O)OCC)C1 (stereo not drawn) | -65.5%
Cc1ccc(S(=O)(=O)N2CCOCC2)cc1NC(=O)COc1cccc(-n2cnnn2)c1 | -30.2%
Cc1nn(C)cc1S(=O)(=O)NC1CCCC1 | 12.8%
COc1ccc(-c2noc(N3CCC(C(=O)NCCCN4CCC(C)CC4)CC3)n2)cc1 | -49%
CCOc1ccc(C2NC(=O)NC(C)=C2[N+](=O)[O-])cc1OC (stereo not drawn) | 24.6%
CC(C)c1nc2sc(C(=O)O)c(N)c2c2c1CCCC2 | 9.9%
CC12CCC(C(=Nc3ccc(N=C4C(=O)C5(C)CCC4C5(C)C)cc3)C1=O)C2(C)C | -5.24%
COc1ccc(NC(=O)c2ccc(S(=O)(=O)N(C)c3ccccc3)cc2)cn1 | -29.4%
Cc1ccccc1C(=O)c1cccn1CC(=O)N1CCCCCC1 | 3.97%
COc1ccc(C2=NO[C@@H]3[C@@H]4C[C@@H]([C@H]5C(=O)N(c6ccc7c(c6)OCO7)C(=O)[C@@H]45)[C@H]23)cc1OC | -11.8%
